Results reported in paper PMC4336329 (PLoS ONE, 2015).
About 2,200 (0.71%) of roughly 310,000 compounds showed an effect of 50% or more. Effects have a minus sign here. This is one part of the list.

These compounds were tested against human ether-à-go-go-related gene (hERG) potassium channel (human, UniProt Q12809) (assay: primary screen, population patch clamp on CHO cells stably expressing hERG).
human ether-à-go-go-related gene (hERG) potassium channel, sequence (Q12809 whole entry, looked up): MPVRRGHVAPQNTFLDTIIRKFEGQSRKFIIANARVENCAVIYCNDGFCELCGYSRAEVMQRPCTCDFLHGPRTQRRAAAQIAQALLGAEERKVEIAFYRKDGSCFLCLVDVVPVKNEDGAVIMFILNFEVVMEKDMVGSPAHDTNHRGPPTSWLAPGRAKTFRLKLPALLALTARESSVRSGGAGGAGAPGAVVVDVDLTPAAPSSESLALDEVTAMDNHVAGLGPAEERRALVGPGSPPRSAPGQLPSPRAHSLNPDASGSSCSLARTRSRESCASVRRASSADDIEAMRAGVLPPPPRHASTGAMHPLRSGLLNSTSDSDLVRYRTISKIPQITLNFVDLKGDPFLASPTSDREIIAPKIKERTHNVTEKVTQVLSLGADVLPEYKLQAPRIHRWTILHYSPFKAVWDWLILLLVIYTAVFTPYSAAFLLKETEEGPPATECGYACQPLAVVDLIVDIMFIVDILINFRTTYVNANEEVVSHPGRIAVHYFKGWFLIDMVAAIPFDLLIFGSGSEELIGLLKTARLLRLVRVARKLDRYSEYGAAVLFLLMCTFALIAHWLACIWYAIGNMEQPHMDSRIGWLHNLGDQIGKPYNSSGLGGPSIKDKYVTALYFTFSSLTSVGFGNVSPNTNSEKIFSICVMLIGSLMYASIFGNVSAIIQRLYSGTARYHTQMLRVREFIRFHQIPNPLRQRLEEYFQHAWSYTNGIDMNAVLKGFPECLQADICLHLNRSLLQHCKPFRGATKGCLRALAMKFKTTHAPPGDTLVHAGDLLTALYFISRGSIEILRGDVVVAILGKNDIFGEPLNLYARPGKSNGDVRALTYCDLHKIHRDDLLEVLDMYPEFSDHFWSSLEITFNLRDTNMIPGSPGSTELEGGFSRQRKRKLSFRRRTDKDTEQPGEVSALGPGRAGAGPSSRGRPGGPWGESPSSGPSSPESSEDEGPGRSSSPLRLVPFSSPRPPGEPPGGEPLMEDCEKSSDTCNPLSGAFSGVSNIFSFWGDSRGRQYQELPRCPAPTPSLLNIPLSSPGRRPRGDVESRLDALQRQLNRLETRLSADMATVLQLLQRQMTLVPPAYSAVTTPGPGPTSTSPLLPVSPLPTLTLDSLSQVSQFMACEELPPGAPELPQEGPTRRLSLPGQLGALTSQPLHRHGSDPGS

Compound	hERG current change (%, negative = inhibition) at 1uM [%]
COc1ccc(C(NC(=O)c2ccc(F)cc2)c2ccccc2)cc1 (centres unmarked)	-13.2
O.O=c1c2sc3nc(N4CCOCC4)c4c(c3c2nnn1Cc1ccccc1)CCCC4	8.41
COc1cccc(NC(=O)Cn2c(=O)n(CCC(=O)NC3CCN(Cc4ccccc4)CC3)c(=O)c3ccccc32)c1	-7.29
O=C(NC1CCCCC1)C(c1ccncc1)N(Cc1ccc2c(c1)OCO2)C(=O)C(F)(F)F (centres unmarked)	5.84
O=S(=O)(NCc1ccccc1)c1ccc(Cl)cc1	15.7
COc1ccc(S(=O)(=O)N2CCN(c3c(C)cccc3C)CC2)cc1OC	7.19
Cc1oc(-c2ccccc2Cl)nc1CS(=O)(=O)CC(=O)NC1CCCC1	-1.67
O=C(CNC(=O)c1ccccc1F)NC1CC1	11
Fc1cccc(Cl)c1Cn1nnc2c(N3CCC4(CC3)OCCO4)ncnc21	13.7
Cc1ccc(C(=O)Oc2ccc([N+](=O)[O-])cc2)cc1S(=O)(=O)N1CCCCCC1	9.64
CCOC(=O)C1(CC2CCCCO2)CCN(Cc2c(C)cc(C)cc2-n2cccn2)CC1 (centres unmarked)	-84.1
c1ccc(NC2=Nc3cccc4cccc2c34)cc1	12.1
COc1ccc(OC)c(CCNC(=O)C(=O)Nc2ccc3nc4n(c(=O)c3c2)CCCCC4)c1	6.8
CC(NC(=O)c1ccc(=O)oc1)c1ccccc1 (centres unmarked)	3.24
CN1CCN(C(=O)/C=C/c2ccc([N+](=O)[O-])cc2)CC1	-48.5
Cc1ccc(NS(=O)(=O)c2ccc(CCC(=O)NC3CC3)cc2)cc1	9.77
CC1CCCCN1C(=O)CCNS(=O)(=O)c1ccc2c(c1)c(=O)n(C)c(=O)n2C (centres unmarked)	5.35
O=C(CCc1ccccc1)Nc1ccc(NC(=O)c2ccco2)cc1	5.34
CC(C)c1nc(Cl)c(C#N)c2c1CCC2	9.85
O=C(c1ccccc1Cl)N1CCn2c1nc1ccccc12	10.5
Cl.N=c1c2c(n(Cc3ccc([N+](=O)[O-])cc3)c3c1CCC3)CCCC2	6.83
COc1ccc(N2CC(C(=O)N/N=C/c3cccs3)CC2=O)cc1 (centres unmarked)	9.66

Compound	hERG current change (%, negative = inhibition) at 1uM [%]
Cc1ccc(C)c(OCCN2CCOCC2)c1	13.2
COc1cc2[nH]c(=O)n(Cc3ccc(C(=O)N4CCC(N5CCCCC5)CC4)cc3)c(=O)c2cc1OC	12.6
COc1ccc(N(CC(=O)NCc2ccco2)C(=O)CCC(=O)Nc2nccs2)c(OC)c1	-2.41
CC(C)c1ccc(NC(=O)c2cccc(Br)c2)cc1	20.9
Cc1cccc(C(=O)NCC(=O)OCC(=O)c2ccc(Cl)s2)c1	6.05
O=C(O)c1ccccc1CSc1nc2ccccc2s1	18.4
COc1ccc(CCNc2cc(N3CCN(C(=O)c4ccccc4F)CC3)ccc2[N+](=O)[O-])cc1OC	6.84
CCCN1C(=O)SC(CC(=O)Nc2ccccc2C)C1=O (centres unmarked)	13.8
CC(C)(C)c1ccc(-c2c(C#N)c(N)nc3c2CCCC3)s1	8.26
CC(=O)c1ccc(OCCCC(=O)NC2CCCc3ccccc32)cc1 (centres unmarked)	0.526
COc1cccc(-c2nn(-c3ccc(C)cc3)cc2C(=O)NCC(c2cccs2)N2CCOCC2)c1 (centres unmarked)	13.2
CN1CCCN(C(=O)c2ccc(Cl)s2)CC1	-50.5
CCOc1ccccc1/C=N/NC(=O)CSc1n[nH]c(=O)[nH]c1=O	13.8
COc1ccc2nc(NC(=O)c3ccc(NC(=O)C4CCCO4)cc3)sc2c1 (centres unmarked)	15.4
CCCN1C(=O)c2[nH]nc(-c3cc(Cl)c(C)cc3O)c2C1c1ccc(O)c(OC)c1 (centres unmarked)	3.99
COC(=O)c1c(C)[nH]c(C(=O)OCC(=O)NC(C)(C)C)c1C	9.6
CCOC(=O)C1(Cc2cccc(F)c2)CCN(Cc2cnn(CC)c2C)CC1	3.09
CNS(=O)(=O)c1ccc(OC)c(-c2nnc3c4ccccc4c(C)nn23)c1.Cl	15.1
CC(=O)OCCc1c(C)nc2nc[nH]n2c1=O	14.5
CN(C(=O)COc1cc(=O)n(C)c2ccccc12)c1ccc(Br)cc1	5.1
CCOc1ccc(/C(CCC(=O)O)=N/NC(=S)NC(C)C)cc1	9
CCOC(=O)/C(C#N)=C/c1c(N2CCN(c3ccccc3)CC2)nc2c(C)cccn2c1=O	10.8
